Experimental data: the antibiotic and cytotoxicity screens of Wong et al. (2023)
The list shows a part of the results.

How the values were obtained:
[1] = system: HSkMC (human skeletal muscle cells); assay: cytotoxicity call (relative viability < 0.9); details: 10 µM
[2] = system: HepG2; assay: cytotoxicity call (relative viability < 0.9); details: 10 µM
[3] = system: S. aureus RN4220; assay: growth inhibition call (relative growth <= 0.2); details: 50 µM

| Compound | cytotoxicity call [1] | cytotoxicity call [2] | growth inhibition call [3] |
| --- | --- | --- | --- |
| COc1ccccc1CN(C)C[C@@H]1OCc2ccccc2-c2c(n(C)c3ccccc23)C(=O)N([C@H](C)CO)C[C@@H]1C | inactive | inactive | inactive |
| O=C1OC(CO)C(O)C(O)C1O (configuration not stated) | inactive | inactive | inactive |
| COc1ccccc1-c1ccc2c(c1)O[C@H](CN(C)C(=O)c1ccncc1)[C@@H](C)CN([C@@H](C)CO)S2(=O)=O | inactive | inactive | inactive |
| C[C@H](CO)N1C[C@H](C)[C@@H](CN(C)C(=O)Nc2ccc3c(c2)OCO3)Oc2ccc(NC(=O)CCN3CCOCC3)cc2C1=O | inactive | inactive | inactive |
| COc1ccc(NC(=O)N(C)C[C@@H]2OCCCC[C@H](C)Oc3ccc(NC(=O)Nc4cccc5ccccc45)cc3C(=O)N([C@H](C)CO)C[C@@H]2C)cc1 | inactive | inactive | inactive |
| C[C@H](O)C#Cc1cnc2c(c1)C(=O)N([C@H](C)CO)C[C@@H](C)[C@H](CN(C)C(=O)Nc1ccc(C(F)(F)F)cc1)O2 | inactive | inactive | inactive |
| C[C@H](CO)N1C[C@H](C)[C@H](CN(C)Cc2ccc(Cl)c(Cl)c2)Oc2ccc(NC(=O)Cc3cn(C)c4ccccc34)cc2C1=O | active | inactive | inactive |
| COc1ccc2c3c(n(c2c1)C)[C@@H](CO)N(CC1CCCC1)C[C@]13CCN(CC1)C(=O)Nc1ccccc1 | inactive | active | inactive |
| Cc1ccc(S(=O)(=O)Nc2ccc3c(c2)CC(=O)N([C@H](C)CO)C[C@H](C)[C@@H](CN(C)S(=O)(=O)c2ccc(F)cc2)O3)cc1 | inactive | inactive | inactive |
